# Several values for one entry are separate records, joined by “and”; a condition that tells them apart may be missing. Equal entries are not always repeated. The whole screen tested about 420,000 compounds, of which about 50,000 (12%) were called active. Inconclusive results, whose numbers are uncertain, are shown with a selection of clear calls. Calls follow the shape of the dose curve; as a rule, active = well fitted inhibition curve with a large enough effect; inconclusive = small, poorly fitted or top-dose-only effect; inactive = flat fitted curve, though single readings scatter. Potencies beside an inconclusive call are fits to weak or partial responses and may not hold up.
# Experiment: qHTS for Inhibitors of human tyrosyl-DNA phosphodiesterase 1 (TDP1): qHTS in cells in presence of CPT; also: nearly all actives have a fitted effect of over 55% in size
# Conditions: chicken DT40 Tdp1-/-;hTDP1 cells + 20 nM CPT, ATP luminescence, 48 h; activity change, negative = growth inhibition: at 46.2 µM (top of the series) unless noted
# Summary of the method: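 Chicken DT40 Tdp1-/- cells complemented with human TDP1, 400 cells/well, exposed to compounds plus 20 nM camptothecin for at least 48 h at 37 C; viability read as ATP content by CellTiter-Glo luminescence.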
# % is scaled to controls: 0 for no effect and ±100 for the full control effect; potency is read from the fitted curve at half-maximal effect; tags tell the direction and shape of the fitted curve.
SMILES,Potency,"activity change, negative = growth inhibition"
CCC(C)(C)n1nnnc1C(c1cc(OC)ccc1OC)N1CCN(Cc2ccccc2)CC1 (centres undefined),"inconclusive: 18.4 µM [inhibitor, single point]",–
Cc1ccc(S(=O)(=O)N2CCOCC2)cc1C(=O)OC1CCOC1=O (centres undefined),–,inactive: -10.9%
CCN(CC)c1ccc(CNS(=O)(=O)c2cc3c(cc2C)NC(=O)CO3)cc1,"inconclusive: 29.1 µM [inhibitor, single point]",–
CCOC(=O)Cc1csc(NC(=O)c2sc3nc4c(C)cc(C)cc4cc3c2N)n1,"inconclusive: 29.1 µM [inhibitor, single point]",–
COc1ccc(F)cc1-c1cc(NC=O)c2ncc(-c3cccc(C(=O)N(C)C)c3)n2c1,"inconclusive: 29.1 µM [inhibitor, single point]",–
Cc1ccc(Cn2cccc2/C=N/NC(=S)Nc2ccc(C)cc2)cc1,active: 4.61 µM,–
CN(CC(=O)Nc1cccc(F)c1)C(=O)c1cc(-c2cccs2)nn1-c1ccccc1,"inconclusive: 23.1 µM [inhibitor, single point]",–
CC(=O)c1cccc(N=c2scc(-c3ccc(S(=O)(=O)N4CCOCC4)cc3)n2CCO)c1,active: 6.51 µM,–
CCCC(=O)Nc1ccc(NC(=O)c2ccccn2)cn1,–,inactive: -25.9%
CCOc1cc(S(=O)(=O)N2CCN(c3ccc(F)cc3)CC2)c(OCC)cc1-n1cnnn1,–,inactive: -21.3%
COC(=O)c1nccc2c1[nH]c1ccccc12,"inconclusive: 23.1 µM [inhibitor, single point]",–
COC(=O)[C@]1(CC(C)C)N[C@H](c2ccc(-c3ccc(C(C)=O)cc3)cc2)[C@@H]2C(=O)N(C)C(=O)[C@@H]21,–,inactive: -21.7%
COc1cccc(/C=N/NC(=O)c2c(-c3ccccc3)noc2C)c1O,active: 4.11 µM,–
Cn1c(SCc2ccccc2Cl)nc(=O)c2c1NC(=O)CC2c1cc(F)ccc1F (centres undefined),"inconclusive: 16.4 µM [inhibitor, single point]",–
O=C(/C=C/c1ccco1)NC(=S)Nc1cc(-c2nc3ccccc3s2)ccc1Cl,active: 11.6 µM,–
Cc1ccc2nc(N=C(N)N)nc(C)c2c1,"inconclusive: 18.4 µM [inhibitor, single point]",–
CC1CCN(C(=O)CSc2nnc(Cc3cccn3C)n2CCc2ccccc2)CC1,active: 16.4 µM,–
CCn1c(=O)n(CC)c2cc(NC(=O)C(C)c3ccccc3)c(Br)cc21 (centres undefined),"inconclusive: 29.1 µM [inhibitor, single point]",–
CCOC(=O)N1CCC(NC(=O)CCC(=O)N2CC(C)Oc3ccc(C)cc32)CC1 (centres undefined),"inconclusive: 25.9 µM [inhibitor, single point]",–
CC(=O)N1CCc2ccc([N+](=O)[O-])cc21,–,inactive: -4.99%
CC1CCCC(C)N1CCCNC(=O)c1cc2c(=O)n(C)c3ccccc3c2n1C (centres undefined),"inconclusive: 29.1 µM [inhibitor, single point]",–
CCOC(=O)c1ccccc1NC(=O)Cn1c(=O)n(-c2ccc(CC)cc2)c(=O)c2c(C)c(C(=O)N(C)C)sc21,active: 8.2 µM,–
CC(C)c1nn2c(=O)cc(CSc3ccccc3NC(=O)c3ccccc3F)nc2s1,"inconclusive: 25.9 µM [inhibitor, single point]",–

SMILES,Potency,"activity change, negative = growth inhibition"
Cc1csc(NC(=O)C2CCN(C(=O)c3ccccc3C)CC2)n1,–,inactive: -25.9%
COc1ccccc1CNC(=O)COC(=O)/C=C/c1ccc2ccccc2n1,"inconclusive: 29.1 µM [inhibitor, single point]",–
C=CCOc1ccccc1CN1CCC(CO)(CCOc2ccccc2)CC1,"inconclusive: 18.4 µM [inhibitor, single point]",–
COc1cccc(C2=N/C(=C\N(C)C)C(=O)O2)c1,"inconclusive: 29.1 µM [inhibitor, single point]",–
Cn1cccc1C(=O)N1CCC2(CCN(C(=O)Nc3cccc(C#N)c3)CC2)CC1,"inconclusive: 14.6 µM [inhibitor, partial curve]",–
COc1ccc(/C=C/C(=O)OCCCN(C)C)cc1,"inconclusive: 0.58 µM [inhibitor, single point]",–
Cc1ccc(NC(=S)NCC2CCN(C(C)c3ccccc3)C2)cc1C (centres undefined),active: 23.1 µM,–
O=C(NCCN1C(=O)S/C(=C\c2ccccc2F)C1=O)C1=COCCO1,"inconclusive: 2.59 µM [inhibitor, full curve, poor fit]",–
O=C(Oc1ccccc1)N1CCC2(CC1)CN(c1ccncc1)C2,active: 13 µM,–
CCn1c(=O)c2ccccc2n(CC(=O)NC2CCCCC2)c1=O,–,inactive: -10.8%
CC(C)(C)CC(C)(C)N=C1Nc2cc(Cl)c(Cl)cc2NC12C[C@H]1CCC(=O)N3CC[C@@H](C2)[C@@H]13 (some centres undefined),"inconclusive: 29.1 µM [inhibitor, single point]",–
CC1CN(C(=S)Nc2cccc(Cl)c2Cl)CC(C)O1 (centres undefined),–,inactive: 0.0173%
CC(C)Sc1nc2sc3c(c2c(=O)n1-c1ccccc1)CCCC3,"inconclusive: 18.4 µM [inhibitor, single point]",–
Cc1ccccc1-c1nc(NC2CC2)c2ccccc2n1,"inconclusive: 29.1 µM [inhibitor, single point]",–
CC1CC(C)(C)CC2(C1)NC(=O)N(CC(=O)N1CCN(S(=O)(=O)c3ccc(F)c(F)c3F)CC1)C2=O (centres undefined),"inconclusive: 16.4 µM [inhibitor, single point]",–
CNC(=S)SCCOc1ccc(C)cc1,"inconclusive: 0.231 µM [inhibitor, full curve, poor fit]",–
O=C(Cn1c(SCC(=O)Nc2ccc(F)cc2)nc2ccccc21)NCc1ccc(Cl)cc1,"inconclusive: 5.8 µM [inhibitor, single point]",–
CC(=O)OC[C@@H]1CN(Cc2ccccc2)C[C@H](n2cnc3c(N4CCOCC4)ncnc32)O1,"inconclusive: 20.6 µM [inhibitor, partial curve]",–
COc1ccccc1NC(=O)Cn1cnc2c(oc3nc4c(cc32)CCCC4)c1=O,–,inconclusive: -34.8% [inhibitor]
CCn1ccnc1CN(C)Cc1cn(-c2cccc(C)c2)nc1-c1cccc(F)c1,active: 16.4 µM,–
CN(Cc1ccco1)S(=O)(=O)c1nnc(NC(=O)c2ccccc2)s1,"inconclusive: 16.4 µM [inhibitor, single point]",–
COc1ccc2[nH]c(I)c(CCNC(C)=O)c2c1,inactive,–
CC1CC(C)CN(C(=S)SCc2nc(N)nc(Nc3ccccc3)n2)C1 (centres undefined),"inconclusive: 29.1 µM [inhibitor, single point]",–

SMILES,Potency,"activity change, negative = growth inhibition"
COc1ccc(-c2nc3c(c(=O)n(C)c(=O)n3C)n2CC2CC(c3ccccc3)=NO2)cc1OC (centres undefined),active: 10.3 µM,–
COc1ccccc1N(CC(=O)Nc1cc(C)cc(C)c1)S(C)(=O)=O,"inconclusive: 32.6 µM [inhibitor, partial curve]",–
Cc1cc(NCc2ccc(Cl)cc2)n2cnnc2n1,active: 20.6 µM,–
Cc1cccc(OCC(=O)N2CCN(C(=O)CCC3CCCC3)CC2)c1,"inconclusive: 18.4 µM [inhibitor, single point]",–
CCc1ccc(NS(=O)(=O)c2c(-c3ccccc3)csc2C(=O)OC)cc1,"inconclusive: 16.4 µM [inhibitor, single point]",–
CCCCNc1c(-c2ccc(Sc3ccc(OC)cc3)cc2)nc2cc(C)ccn12,"inconclusive: 18.4 µM [inhibitor, single point]",–
CCN(CC)C(=O)COc1ccc(-c2ccccc2)cc1,"inconclusive: 32.6 µM [inhibitor, single point]",–
Cc1cccc2cc(C#N)c(SCC(=O)Nc3ccccc3N3CCOCC3)nc12,"inconclusive: 18.4 µM [inhibitor, single point]",–
COC(=O)c1ccc(Oc2nc3c(c(=O)n(C)c(=O)n3C)n2Cc2ccc(Cl)c(Cl)c2)cc1,–,inactive: 3.58%
CCC(=O)Nc1cccc(OCc2cc(=O)n3cc(C)ccc3n2)c1,"inconclusive: 25.9 µM [inhibitor, single point]",–
O=C(CSc1ccccc1)Nc1cccc(S(=O)(=O)N2CCCCC2)c1,"inconclusive: 13 µM [inhibitor, partial curve]",–
c1ccc(-c2cn3c4c(sc3n2)CCCC4)cc1,"inactive and inconclusive: 25.9 µM [inhibitor, single point]",–
COc1ccc(CCn2c(-c3cccc([N+](=O)[O-])c3)nc3nc4ccccc4nc32)cc1OC,–,inactive: -7.18%
CCOc1ccc(NC(=O)c2nnn(-c3ccc(F)c(Cl)c3)c2C)cc1,–,inactive: -26.3%
CC1=C(C(=O)Nc2ccccc2)C(c2ccccn2)n2nc(SCc3ccccc3Cl)nc2N1 (centres undefined),"inconclusive: 7.31 µM [inhibitor, partial curve]",–
CS(=O)(=O)Nc1ccccc1C(=O)Nc1cccc(Cl)c1,"inconclusive: 29.1 µM [inhibitor, single point]",–
O=C(OCC(=O)N1CCOCC1)c1cc(=O)[nH]c2ccccc12,–,inactive: -5.28%
COc1ccc(-c2noc(CCC(=O)Nc3cccc(C(=O)NC4CC4)c3)n2)cc1OC,"inconclusive: 29.1 µM [inhibitor, single point]",–
CCN(CC)c1nc(-c2ccccn2)nc(-c2ccccc2)c1C#N,active: 18.4 µM,–
COc1ccc(C2=NOC(Cn3nc(C(=O)NCc4cccc(Br)c4)cc3-c3ccccc3)C2)cc1 (centres undefined),"inconclusive: 23.1 µM [inhibitor, single point]",–
CCN(CC)CCN(C(=O)CCOc1ccccc1)c1nc2c(F)cc(F)cc2s1,"inconclusive: 29.1 µM [inhibitor, single point]",–
O=C(Nc1ccc(C(F)(F)F)cc1)C1CCCCN1S(=O)(=O)c1ccccc1 (centres undefined),active: 9.2 µM,–
CC1CCN(C(=O)C2c3ccccc3C(=O)N3CCc4ccccc4C23)CC1 (centres undefined),–,inconclusive: -33.2% [inhibitor]
